# From the antibiotic and cytotoxicity screens of Wong et al. (2023)
# The other results are listed elsewhere or left out.
# Test system: HSkMC (human skeletal muscle cells)
# Assay: cytotoxicity call (relative viability < 0.9)
# Details: 10 µM
row,SMILES,cytotoxicity call
1,CNC(=O)C[C@@H]1CC[C@@H]2[C@H](COC[C@H](O)CN2C(=O)Nc2ccc3c(c2)OCO3)O1,inactive
2,COCC#Cc1cnc2c(c1)C(=O)N([C@@H](C)CO)C[C@H](C)[C@@H](CN(C)C(=O)Nc1ccc(OC)cc1)O2,inactive
3,CN(C)CC(=O)N[C@H]1CC[C@H](CC(=O)NCCN2CCCCC2)O[C@H]1CO,inactive
4,Cn1cnc(S(=O)(=O)N[C@@H]2CC[C@@H](CC(=O)Nc3ccccc3)O[C@H]2CO)c1,inactive
5,C[C@@H]1CN([C@@H](C)CO)C(=O)c2c(c3ccccc3n2C)-c2ccccc2CO[C@@H]1CN(C)Cc1ccccc1C(F)(F)F,active
6,COc1ccccc1C#Cc1ccc2c(c1)O[C@H](CN(C)Cc1ccncc1)[C@H](C)CN([C@@H](C)CO)S2(=O)=O,inactive
7,C[C@@H]1CN([C@H](C)CO)C(=O)c2cc(NC(=O)Nc3ccc4c(c3)OCO4)ccc2O[C@@H](C)CCCCO[C@H]1CN(C)Cc1ccc(C(F)(F)F)cc1,inactive
8,COc1ccc(-c2cnc3c(c2)C(=O)N([C@@H](C)CO)C[C@@H](C)[C@H](CN(C)S(=O)(=O)c2ccc(OC)cc2)O3)cc1,inactive
9,C[C@H]1CN([C@@H](C)CO)C(=O)c2cc(-c3ccc(C#N)cc3)cnc2O[C@H]1CN(C)C(=O)Nc1ccc(C(F)(F)F)cc1,inactive
10,C[C@H](CO)N1C[C@H](C)[C@H](CN(C)S(C)(=O)=O)OCc2cn(nn2)CCCC1=O,inactive
11,C[C@@H]1CN([C@H](C)CO)C(=O)c2cc(NS(=O)(=O)c3ccc(F)cc3)ccc2O[C@@H](C)CCCCO[C@@H]1CN(C)C(=O)NC1CCCCC1,inactive
12,COc1ncccc1N,inactive
13,C[C@H]1CN([C@@H](C)CO)C(=O)Cc2cc(NC(=O)Cc3cn(C)c4ccccc34)ccc2O[C@H]1CN(C)Cc1ccc(C(=O)Nc2ccccc2N)cc1,inactive
14,C[C@H]1CN([C@@H](C)CO)C(=O)Cc2cc(NC(=O)Nc3cccc4ccccc34)ccc2O[C@@H]1CN(C)S(=O)(=O)c1ccc(Cl)cc1,inactive
15,CC(C)(C)[S@@](=O)N1Cc2cc(C(=O)N[C@H]3CCN(Cc4ccccc4)C3)nc(-c3cccc(-c4cccnc4)c3)c2[C@H]1CCO,inactive
16,C[C@@H]1CN([C@@H](C)CO)C(=O)c2cccc(NC(=O)Nc3ccc(F)cc3)c2O[C@H]1CN(C)C(=O)Nc1cccc2ccccc12,inactive
17,COc1ccc(NC(=O)N(C)C[C@@H]2OCCCC[C@H](C)Oc3ccc(NC(=O)CCC(F)(F)F)cc3C(=O)N([C@@H](C)CO)C[C@@H]2C)cc1,inactive
18,C[C@@H]1CN([C@H](C)CO)C(=O)c2cc(NC(=O)CCN3CCOCC3)ccc2O[C@H]1CN(C)S(C)(=O)=O,inactive
19,C[C@H](CO)N1C[C@H](C)[C@@H](CN(C)C(=O)Cc2ccncc2)Oc2cc(-c3cncnc3)ccc2S1(=O)=O,inactive
20,C[C@@H]1CN([C@@H](C)CO)C(=O)c2c(c3ccccc3n2C)-c2ccccc2CO[C@@H]1CN(C)C(=O)Nc1cccc(F)c1,inactive
21,CO[C@@H](CN(C)C(=O)c1ccc2c(c1)OCO2)[C@@H](C)CN([C@H](C)CO)S(=O)(=O)c1ccc(Cl)cc1,inactive
22,C[C@H]1CN([C@@H](C)CO)S(=O)(=O)c2ccc(-c3ccccc3F)cc2O[C@@H]1CN(C)S(C)(=O)=O,inactive
23,COc1ccc(S(=O)(=O)Nc2ccc3c(c2)C(=O)N([C@@H](C)CO)C[C@@H](C)[C@@H](CN(C)S(=O)(=O)c2c(C)noc2C)O3)cc1,inactive
24,C[C@@H]1CN([C@@H](C)CO)C(=O)c2cc(NC(=O)Cn3cnnn3)ccc2O[C@H]1CN(C)Cc1ccncc1,inactive
25,O=C([C@H]1N[C@H]2c3ccc(-c4ccc(F)cc4)c(=O)n3C[C@H]2[C@@H]1CO)N1CCOCC1,inactive
26,Cc1cc2nc3c(=O)[nH]c(=O)nc-3n(CC(O)C(O)C(O)CO)c2cc1C (centres undefined),inactive
27,C[C@H](CO)N1C[C@H](C)[C@@H](CN(C)S(=O)(=O)c2cccs2)OCCCC[C@H](C)Oc2ccc(NC(=O)Nc3ccc4c(c3)OCO4)cc2C1=O,active
28,Cc1noc(C)c1NC(=O)Nc1ccc2c(c1)C(=O)N([C@H](C)CO)C[C@H](C)[C@@H](CN(C)Cc1ccc3c(c1)OCO3)OCCCC[C@@H](C)O2,inactive
29,COc1ccc(S(=O)(=O)N(C)C[C@H]2Oc3ccc(NS(=O)(=O)c4ccc(F)cc4)cc3CC(=O)N([C@@H](C)CO)C[C@@H]2C)cc1,inactive
